The supplement of paper PMC10037445
Values joined by “and” are separate entries in the source; they are usually repeats but may differ in a detail not shown here. Identical values can stand only once. The full ranking holds about 2,900 compounds; the median of “NF-kB SEAP reporter activity, fold change vs agonist alone” is about 0.99, and the highest 2% start at about 2.6. This is one part of the list.

Columns and labels:
RAW-Dual [1] = test: NF-kB SEAP reporter activity, fold change vs agonist alone; cytotoxicity flag (confluency mask): not cytotoxic; higher = enhanced NF-kB activity
Procedure, shortened: (§1)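 After 50 nL of library stock was delivered by pin tool to RAW-Dual macrophages (50,000 cells/well, DMEM, 384-well plates), a PRR agonist was added 1 h later and the plates were kept at 37 °C, 5% CO2. Twenty hours later, IRF was read from supernatant by QuantiLuc luminescence and NF-κB by QuantiBlue absorbance at 620 nm. Reporter activity is stated as fold change over agonist-alone wells. Wells with IncuCyte confluency under 70% of agonist controls in both mask sets were counted as cytotoxic.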

RAW-Dual [2] = test: NF-kB SEAP reporter activity, fold change vs agonist alone; higher = enhanced NF-kB activity; settings: library stock concentration (final ~1000-fold dilution): 10 mM, cytotoxicity flag (confluency mask): not cytotoxic
Procedure, shortened: as §1

[3] = agonist: ODN 1826 (TLR9) 0.5 ug/mL
[4] = agonist: Pam2CSK4 (TLR2/6) 0.1 ug/mL
[5] = agonist: Pam3CSK4 (TLR2/1) 0.1 ug/mL

SMILES | NF-kB SEAP reporter activity (RAW-Dual [1]; agonist: LPS (TLR4) 0.1 ug/mL) | NF-kB SEAP reporter activity (RAW-Dual [1]; [3]) | NF-kB SEAP reporter activity (RAW-Dual [1]; [4]) | NF-kB SEAP reporter activity (RAW-Dual [1]; [5]) | NF-kB SEAP reporter activity (RAW-Dual [2]; agonist: Imiquimod (TLR7) […]) | NF-kB SEAP reporter activity (RAW-Dual [2]; agonist: MPLA (TLR4) […])
Cc1cc(C)nc(NC(=S)N2CCN(Cc3ccc(C(F)(F)F)cc3)CC2)c1 (library stock concentration (final ~1000-fold dilution): 10 mM) | 0.783 | 0.834 | 0.805 | 0.809 |  | 
Cc1cc(C)nc(NC(=S)N2CCN(Cc3ccc(C(F)(F)F)cc3)CC2)c1 |  |  |  |  | 0.758 | 0.954
Cn1c(Nc2ccc(C(F)(F)F)cc2)nc2cc(Oc3ccnc(-c4ncc(C(F)(F)F)[nH]4)c3)ccc21 |  |  |  |  | 0.103 | 0.11
Cn1c(Nc2ccc(C(F)(F)F)cc2)nc2cc(Oc3ccnc(-c4ncc(C(F)(F)F)[nH]4)c3)ccc21 (library stock concentration (final ~1000-fold dilution): 10 mM) | 0.249 | 0.146 | 0.101 | 0.158 |  | 
COC1OC(CO)C(O)C(O)C1O (configuration not stated) (library stock concentration (final ~1000-fold dilution): 10 mM) | 1.06 | 1 | 1.09 | 1.02 |  | 
COC1OC(CO)C(O)C(O)C1O (configuration not stated) |  |  |  |  |  | 1.07
CC(C)CC(C=O)NC(=O)C(CC(C)C)NC(=O)C(CC(C)C)NC(=O)OCc1ccccc1 (configuration not stated) |  |  |  |  | 0.958 | 0.952
CC(C)CC(C=O)NC(=O)C(CC(C)C)NC(=O)C(CC(C)C)NC(=O)OCc1ccccc1 (configuration not stated) (library stock concentration (final ~1000-fold dilution): 10 mM) | 0.47 | 0.967 | 1.13 | 0.768 |  | 
COc1cc2ncnc(Nc3cccc(Cl)c3F)c2cc1OC(=O)N1CCN(C)CC1C (configuration not stated) (library stock concentration (final ~1000-fold dilution): 10 mM) | 1.19 | 0.84 | 1.19 | 1.1 |  | 
COc1cc2ncnc(Nc3cccc(Cl)c3F)c2cc1OC(=O)N1CCN(C)CC1C (configuration not stated) |  |  |  |  | 0.868 | 1.05
NCc1c[nH]c(=S)n1C1CCc2c(F)cc(F)cc2C1 (configuration not stated) (library stock concentration (final ~1000-fold dilution): 10 mM) | 0.897 | 0.9 | 0.899 | 0.617 |  | 
NCc1c[nH]c(=S)n1C1CCc2c(F)cc(F)cc2C1 (configuration not stated) |  |  |  |  |  | 0.992
CC(=O)SCC(Cc1ccccc1)C(=O)NCC(=O)OCc1ccccc1 (configuration not stated) (library stock concentration (final ~1000-fold dilution): 10 mM) | 0.85 | 0.956 | 1.05 | 1.15 |  | 
CC(=O)SCC(Cc1ccccc1)C(=O)NCC(=O)OCc1ccccc1 (configuration not stated) |  |  |  |  | 0.87 | 0.984
CC1COc2c(N3CCN(C)CC3)c(F)cc3c(=O)c(C(=O)O)cn1c23 (configuration not stated) (library stock concentration (final ~1000-fold dilution): 10 mM) | 1.22 and 1.28 | 0.963 and 1.11 | 1.1 and 1.11 | 1.12 and 1.19 |  | 
Cc1n[nH]c2ncc(C(=O)N3CCCC3c3ccc(Cl)cc3)cc12 (configuration not stated) (library stock concentration (final ~1000-fold dilution): 10 mM) | 2.51 | 2.07 | 1.61 | 2.59 |  | 
Cc1n[nH]c2ncc(C(=O)N3CCCC3c3ccc(Cl)cc3)cc12 (configuration not stated) |  |  |  |  | 1.44 | 1.77
Cl.NCc1ccc(S(N)(=O)=O)cc1 (library stock concentration (final ~1000-fold dilution): 10 mM) | 0.838 | 0.949 | 1.02 | 0.951 |  | 
Cl.NCc1ccc(S(N)(=O)=O)cc1 |  |  |  |  | 0.942 | 1
CC12CCC3c4ccc(O)cc4CC(CCCCCCCCCS(=O)CCCC(F)(F)C(F)(F)F)C3C1CCC2O (configuration not stated) (library stock concentration (final ~1000-fold dilution): 10 mM) | 0.714 | 0.721 | 0.634 | 0.864 |  | 
CC12CCC3c4ccc(O)cc4CC(CCCCCCCCCS(=O)CCCC(F)(F)C(F)(F)F)C3C1CCC2O (configuration not stated) |  |  |  |  | 0.89 | 0.904
OCC1OC(c2ccc(F)c(Cc3cc4ccccc4s3)c2)C(O)C(O)C1O (configuration not stated) |  |  |  |  | 1.06 | 1.04
OCC1OC(c2ccc(F)c(Cc3cc4ccccc4s3)c2)C(O)C(O)C1O (configuration not stated) (library stock concentration (final ~1000-fold dilution): 10 mM) | 1.07 | 0.948 | 1.15 | 1.17 |  | 
CC(C)=CCC[C@](C)(O[C@@H]1O[C@H](CO[C@@H]2O[C@H](CO)[C@@H](O)[C@H](O)[C@H]2O)[C@@H](O)[C@H](O)[C@H]1O)[C@H]1CC[C@]2(C)[C@@H]1[C@H](O)C[C@@H]1[C@@]3(C)CC[C@H](O[C@@H]4O[C@H](CO)[C@@H](O)[C@H](O)[C@H]4O[C@@H]4O[C@H](CO)[C@@H](O)[C@H](O)[C@H]4O)C(C)(C)[C@@H]3CC[C@]12C (library stock concentration (final ~1000-fold dilution): 10 mM) | 0.674 | 0.489 | 0.243 | 0.457 |  | 
